# Reference: PubChem BioAssay AID1347071 (National Center for Advancing Translational Sciences (NCATS), 2019)
# The campaign covered roughly 410,000 compounds. About 260 (0.063%) were called active. Inconclusive results, whose numbers are uncertain, are shown with a selection of clear calls. The call rests on the fitted dose curve; in most records, active means well fitted activation curve with a large enough effect; inconclusive means small, poorly fitted or top-dose-only effect; inactive means no such curve, though single readings can be large or run the other way. No potency is given beside an inconclusive call; the fits are too rough.
# Assay: qHTS for compounds that reverse cellular toxicity of Amyloid beta (A-beta) peptide in yeast: Primary Screen; further: nearly all actives have a fitted effect of over 55% in size
# Settings: yeast expressing A-beta42, growth rescue, OD600, 48 h; growth rescue: at 46.1 µM (top of the series), 0% DMSO, 100% iron-clioquinol control
# In short: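 Growth rescue measured by 600 nm absorbance after 48 h yeast culture at 30 C with compound. Values normalized between DMSO and an equimolar ferric chloride plus clioquinol control.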
# Potency means the concentration at half of the fitted maximal effect; tags describe the fitted curve by direction and shape.
Structure (SMILES),Potency,growth rescue
CCc1ccc(OCc2n[nH]c(=S)n2Cc2ccccc2)cc1,"inconclusive [activator, full curve, poor fit]",–
CCOC(=O)C1=C(C)Nc2sc(C(=O)c3ccc(F)cc3)c(N)c2C1c1ccc(C(=O)OC)cc1 (stereo unspecified),–,inactive: 9.69%
O=C(CSc1nccn1Cc1ccco1)Nc1ccc(OC(F)(F)F)cc1,"inconclusive [activator, partial curve, poor fit]",–
Cn1cc(Br)c(C(=O)NC2CCCCC2)n1,"inconclusive [activator, full curve, poor fit]",–
COc1ccc(C)cc1S(=O)(=O)Nc1cccc(Cl)c1,"inconclusive [activator, partial curve, poor fit]",–
O=C(COC(=O)C(O)c1ccccc1)c1ccc2c(c1)OCCO2 (stereo unspecified),–,inactive: 22.7%
CCOc1ccc(NC(=O)Cn2nnc(C(=O)NCCc3ccc(OC)c(OC)c3)c2N)cc1,"inconclusive [activator, single point]",–
CCOC(=O)c1[nH]c(=S)n(Cc2ccccc2)c1C(=O)OCC,"inconclusive [activator, single point]",–
CCOc1ccc(N2C(=O)CC(N3CCN(c4ccccc4OC)CC3)C2=O)cc1 (stereo unspecified),–,inactive: 12.3%
O=S(=O)(Nc1ccc2c(c1)nc1n2CCN(Cc2ccccc2)C1)c1ccc(Cl)cc1,"inconclusive [activator, partial curve, poor fit]",–
C/C(=N\Nc1cccc(Cl)c1)C1(C)N(O)C(C)(C)C(c2ccco2)=[N+]1[O-] (stereo unspecified),"inconclusive [activator, partial curve]",–
CN(Cc1ccccc1)C(=O)c1[nH]cnc1C(=O)Nc1ccc(Cl)cc1,"inconclusive [activator, single point]",–
O=C(O)c1ccc(Oc2ccc(S(=O)(=O)c3ccc(C(=O)O)c(C(=O)O)c3)cc2)cc1,"inconclusive [activator, single point]",–
NS(=O)(=O)c1ccc(CNC(=O)c2ccccc2SCC(=O)N2CCCC2)cc1,–,inactive: 2.83%
Cn1cc(CCCC(=O)NCc2ccc(F)cc2)c2ccccc21,"inconclusive [activator, single point]",–
CCOC(=O)c1ccc(NC(=O)c2noc3c2CCCC3)cc1,–,inactive: -23.6%
CCOC(=O)C1CCN(C(=O)c2cccc(N3C(=O)NC4CC3(C)Oc3ccc(C)cc34)c2)CC1 (stereo unspecified),–,inactive: 7.76%
CCOC(=O)C(C)Sc1nc(-c2ccccc2)nc2ccc(F)cc12 (stereo unspecified),"inconclusive [activator, partial curve]",–
S=C(NCc1ccccc1)NCc1ccc(Cl)cc1,"inconclusive [activator, partial curve, poor fit]",–
Cc1nnc(SCC(=O)Nc2ccc(OC(F)F)c(Cl)c2)n(N)c1=O,–,inactive: -1.5%
CC12CCC(C(=O)Nc3ccc(Cl)cc3)([C@H](Br)C1=O)C2(C)C (stereo partly specified),"inconclusive [activator, partial curve, poor fit]",–
COc1cccc(-c2n[nH]c3c2CCC3)c1,"inconclusive [activator, single point]",–
Cc1ncc([N+](=O)[O-])n1CCOC(=O)C12CC3CC(CC(C3)C1)C2,–,inactive: -7.03%
O=C1c2ccccc2-c2onc3ccc(N4CCCC4)c1c23,–,inactive: -13.5%

Structure (SMILES),Potency,growth rescue
Cc1cccc(N(CC(=O)NC(C)c2ccccc2)S(=O)(=O)c2ccccc2)c1C (stereo unspecified),"inconclusive [activator, single point]",–
Cc1ccc(CN(Cc2ccco2)c2cnc(S(C)(=O)=O)nc2C(=O)Nc2ccc(Br)cc2)o1,–,inactive: -26.3%
CN(C)CCN(Cc1ccccc1)c1ccnc(N(C)C)c1C#N,–,inactive: 3.24%
S=c1[nH]nc(-c2ccc(Br)cc2)n1-c1ccc2c(c1)OCCO2,"inconclusive [activator, partial curve, poor fit]",–
COc1ccc(NC(=O)COC(=O)c2ccc3c(c2)OCO3)c(OC)c1,"inconclusive [activator, partial curve, poor fit]",–
Cc1cc(Oc2ccccc2F)nc(NCc2ccccc2)n1,"inconclusive [activator, single point]",–
S=c1[nH]c2ccccc2n2cccc12,active: 11.2 µM,–
CCCOc1ccc(OC(=O)c2sc3ncn(Cc4cccc(F)c4)c(=O)c3c2C)cc1,–,inactive: -5.91%
COc1ccccc1OCCSc1nc2ccccc2n1CCO,–,inactive: -12.1%
Brc1ccc(Oc2ncc(CN3CCN(c4ccccc4)CC3)s2)cc1,"inconclusive [activator, partial curve, poor fit]",–
Cc1c(C(=O)OCCOc2ccccc2)[nH]c2c1C(=O)CCC2,"inconclusive [activator, single point]",–
Cc1ccc2[nH]c(CSc3nnc(NC(=O)COc4ccccc4F)s3)cc(=O)c2c1,–,inactive: -21.6%
COc1ccc(N2CCN(C(c3ccccc3)c3nnc(-c4ccccc4Cl)o3)CC2)cc1 (stereo unspecified),"inconclusive [activator, single point]",–
CCN(CC)C(=O)c1scc2c1OCCO2,"inconclusive [activator, single point]",–
COc1ccc(Cl)cc1NC(=S)NCCc1ccc(F)cc1,"inconclusive [activator, single point]",–
CCN(CC)CCN1C(=O)C(=O)/C(=C(/O)c2c(C)[nH]c(C(=O)OC)c2C)C1c1ccc(OC)cc1 (stereo unspecified),–,inactive: -1.56%
CCN1C(=O)c2ccccc2Sc2ccc(NC(=O)c3ccc(C)c(F)c3)cc21,–,inactive: -8.94%
Cc1cc(=O)[nH]c(-n2nc(C)cc2C)n1,"inconclusive [activator, partial curve, poor fit]",–
Cc1noc(C)c1S(=O)(=O)N1CCC(C(=O)N2CCN(c3ccccc3Cl)CC2)CC1,"inconclusive [activator, full curve]",–
COCCc1nn2c(=O)cc(COC(=O)COc3ccccc3C)nc2s1,"inconclusive [activator, full curve]",–
Cc1cnc(C(=O)OC(C(=O)Nc2cc(C(F)(F)F)ccc2Cl)c2ccccc2)cn1 (stereo unspecified),"inconclusive [activator, partial curve]",–
CCOc1ccccc1-n1nnnc1SCC(=O)NCC1(N2CCOCC2)CCCCC1,"inconclusive [activator, single point]",–
COCCNC(=O)/C(C#N)=C/c1cccc(/C=C(\C#N)C(=O)NCCOC)c1,"inconclusive [activator, partial curve]",–
CC(=O)Oc1ccc2nc(/C=C/c3ccccc3)oc(=O)c2c1,–,inactive: 6.67%

Structure (SMILES),Potency,growth rescue
CCNC(=S)N/N=C(\C)c1cccc([N+](=O)[O-])c1,"inconclusive [activator, partial curve, poor fit]",–
N#C/C(=C(/O)c1ccc2c(c1)OCO2)c1nc2cc(C(F)(F)F)ccc2s1,–,inactive: 12.4%
COc1ccccc1NCC(O)Cn1c2ccccc2c2ccccc21 (stereo unspecified),"inconclusive [activator, partial curve]",–
CCOc1ccc2[nH]c(=O)c(C(c3nnnn3CCOC)N3CCOCC3)cc2c1 (stereo unspecified),"inconclusive [activator, partial curve]",–
Brc1ccc(-c2csc(-c3nc(-c4ccc(Br)s4)cs3)n2)cc1,"inconclusive [activator, partial curve]",–
Fc1ccc(CNC(=S)Nc2ccccc2F)cc1,"inconclusive [activator, single point]",–
O=S1(=O)C=C(Sc2nc3cc(Cl)ccc3o2)c2ccccc21,–,inactive: -33.5%
CCCCOCCCNC(=O)C[C@@H]1C[C@@]2(C(=O)OC)CC(C)(C)CC=C2N(Cc2cccc3ccccc23)C1=O,–,inactive: -2.33%
CC(CNC(=O)C(C)(C)C)NC(=O)C(C)(C)C (stereo unspecified),"inconclusive [activator, full curve, poor fit]",–
Cc1ccc(Cn2c(C)c(C(=O)NCc3ccc4c(c3)OCO4)sc2=O)cc1,"inconclusive [activator, single point]",–
O=C(Nc1ccccc1)c1cc2c(-c3ccccc3)nn(-c3ccccc3)c2s1,–,inactive: -5.28%
CC(C)(C)c1nc(NCCO)c2nnn(Cc3ccccc3)c2n1,"inconclusive [activator, partial curve, poor fit]",–
Cc1c(Cl)cccc1NC(=S)N(Cc1cccs1)C1CCCC1,"inconclusive [activator, single point]",–
COc1ccccc1N1CCN(C(=O)C2CCN(S(=O)(=O)c3cccs3)CC2)CC1,–,inactive: -12.5%
COc1ccc(Nc2nc(C)c3ccccc3n2)cc1,–,inactive: 18.1%
CC(=O)C1=C(c2cccc([N+](=O)[O-])c2)N(C(C)=O)n2c(C)nnc2S1,–,inactive: -13.7%
CC(C)(C)c1ccc(C(=O)NC(=S)NNC(=O)COc2ccccc2)cc1,–,inactive: -74.4%
CCOC(=O)c1c(Nc2ccc(OCC)cc2)nnc(-c2ccccc2)c1-c1ccccc1,–,inactive: -10.7%
CN(C(=O)CSc1nc2ccc(NC(=O)c3ccco3)cc2s1)c1ccccc1,–,inactive: -15.7%
CS(=O)(=O)N1CC2CCCN2c2cc(C(F)(F)F)ccc21 (stereo unspecified),"inconclusive [activator, partial curve, poor fit]",–
Cc1ccc(/C(N)=N/OC(=O)C(C)c2ccc([N+](=O)[O-])cc2)cc1 (stereo unspecified),"inconclusive [activator, single point]",–
CC12CCC(C(=O)Nc3ccccc3Cl)(C(Br)C1=O)C2(C)C (stereo unspecified),"inconclusive [activator, single point]",–
Cc1cc(C)nc(Sc2ccc([N+](=O)[O-])cc2[N+](=O)[O-])n1,–,inactive: -14.2%
